Results taken from article PMC5971111 (Nature structural & molecular biology, 2018).

Legend:
Assay in all cases: […]
Sec15 = target: T1, Sec15 (S. cerevisiae, UniProt P22224 1-910)
T1 sequence: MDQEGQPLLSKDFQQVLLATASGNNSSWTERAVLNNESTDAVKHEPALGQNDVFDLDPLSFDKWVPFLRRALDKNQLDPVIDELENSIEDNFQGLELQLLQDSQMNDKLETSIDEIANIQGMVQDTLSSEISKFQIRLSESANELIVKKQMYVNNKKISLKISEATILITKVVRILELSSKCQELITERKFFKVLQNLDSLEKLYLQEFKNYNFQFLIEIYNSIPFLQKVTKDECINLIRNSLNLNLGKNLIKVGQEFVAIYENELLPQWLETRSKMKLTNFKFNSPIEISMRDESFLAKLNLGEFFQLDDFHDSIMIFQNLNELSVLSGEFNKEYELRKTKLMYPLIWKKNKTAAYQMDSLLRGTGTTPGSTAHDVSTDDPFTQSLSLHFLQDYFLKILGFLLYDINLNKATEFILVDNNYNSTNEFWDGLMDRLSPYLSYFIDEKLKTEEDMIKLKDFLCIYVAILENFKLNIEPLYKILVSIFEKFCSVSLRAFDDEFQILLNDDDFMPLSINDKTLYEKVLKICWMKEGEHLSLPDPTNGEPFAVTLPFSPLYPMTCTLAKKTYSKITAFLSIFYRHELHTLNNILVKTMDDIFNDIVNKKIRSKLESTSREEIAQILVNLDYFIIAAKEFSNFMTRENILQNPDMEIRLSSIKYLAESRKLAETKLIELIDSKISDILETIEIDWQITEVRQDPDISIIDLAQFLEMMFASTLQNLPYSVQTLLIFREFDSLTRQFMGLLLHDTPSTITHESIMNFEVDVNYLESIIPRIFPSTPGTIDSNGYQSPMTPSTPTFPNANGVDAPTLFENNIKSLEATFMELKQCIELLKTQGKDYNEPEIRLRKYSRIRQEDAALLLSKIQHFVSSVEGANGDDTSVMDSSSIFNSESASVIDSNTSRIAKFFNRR

Sec5 = target: T2, Sec5 (S. cerevisiae, UniProt P89102 1-971)
T2 sequence: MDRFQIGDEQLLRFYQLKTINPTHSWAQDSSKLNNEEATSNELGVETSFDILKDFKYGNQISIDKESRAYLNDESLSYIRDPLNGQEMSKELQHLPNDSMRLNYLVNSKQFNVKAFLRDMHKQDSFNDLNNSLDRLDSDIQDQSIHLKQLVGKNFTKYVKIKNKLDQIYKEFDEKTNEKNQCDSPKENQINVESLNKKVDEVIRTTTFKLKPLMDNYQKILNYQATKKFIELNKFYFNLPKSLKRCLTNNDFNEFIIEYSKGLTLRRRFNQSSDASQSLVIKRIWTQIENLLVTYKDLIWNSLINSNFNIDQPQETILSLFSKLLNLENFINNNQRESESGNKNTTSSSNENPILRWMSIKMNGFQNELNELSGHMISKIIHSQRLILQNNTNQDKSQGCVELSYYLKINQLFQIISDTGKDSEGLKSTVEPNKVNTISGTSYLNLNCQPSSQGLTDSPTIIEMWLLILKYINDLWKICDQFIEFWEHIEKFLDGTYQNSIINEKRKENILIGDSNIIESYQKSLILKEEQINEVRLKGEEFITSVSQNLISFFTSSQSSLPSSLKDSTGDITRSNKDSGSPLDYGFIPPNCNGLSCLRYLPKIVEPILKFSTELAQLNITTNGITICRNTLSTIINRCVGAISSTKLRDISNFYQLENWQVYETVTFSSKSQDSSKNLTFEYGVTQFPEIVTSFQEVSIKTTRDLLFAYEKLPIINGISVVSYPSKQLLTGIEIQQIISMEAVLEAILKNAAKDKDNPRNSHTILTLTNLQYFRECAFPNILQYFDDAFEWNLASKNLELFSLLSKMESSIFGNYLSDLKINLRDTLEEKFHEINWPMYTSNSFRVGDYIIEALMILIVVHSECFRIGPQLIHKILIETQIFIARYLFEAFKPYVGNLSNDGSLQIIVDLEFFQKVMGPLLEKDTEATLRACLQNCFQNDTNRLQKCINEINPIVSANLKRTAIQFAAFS

Exo84 = Exo84 (S. cerevisiae, UniProt P38261 1-753)
Sequence of Exo84 (P38261 whole entry): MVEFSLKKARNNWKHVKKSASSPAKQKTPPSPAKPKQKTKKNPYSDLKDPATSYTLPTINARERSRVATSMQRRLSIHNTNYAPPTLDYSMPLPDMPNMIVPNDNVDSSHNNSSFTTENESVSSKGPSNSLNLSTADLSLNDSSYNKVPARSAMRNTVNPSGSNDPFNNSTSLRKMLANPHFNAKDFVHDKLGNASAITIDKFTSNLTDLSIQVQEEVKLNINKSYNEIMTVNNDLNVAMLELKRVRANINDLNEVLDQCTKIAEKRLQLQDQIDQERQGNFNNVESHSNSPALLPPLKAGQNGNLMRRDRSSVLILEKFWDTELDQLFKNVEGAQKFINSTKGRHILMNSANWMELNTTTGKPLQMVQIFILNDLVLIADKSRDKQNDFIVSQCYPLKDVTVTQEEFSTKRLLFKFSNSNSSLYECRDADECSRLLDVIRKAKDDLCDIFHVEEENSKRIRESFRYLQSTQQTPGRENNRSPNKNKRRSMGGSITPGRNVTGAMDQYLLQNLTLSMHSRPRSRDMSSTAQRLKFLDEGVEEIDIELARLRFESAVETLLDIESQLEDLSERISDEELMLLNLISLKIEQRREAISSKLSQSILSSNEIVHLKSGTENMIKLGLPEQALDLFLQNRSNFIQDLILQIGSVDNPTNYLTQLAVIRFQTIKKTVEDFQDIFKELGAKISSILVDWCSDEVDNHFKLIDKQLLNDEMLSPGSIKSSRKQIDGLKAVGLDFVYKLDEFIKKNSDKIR

Sec10 = target: T3, Sec10 (S. cerevisiae, UniProt Q06245 1-871)
T3 sequence: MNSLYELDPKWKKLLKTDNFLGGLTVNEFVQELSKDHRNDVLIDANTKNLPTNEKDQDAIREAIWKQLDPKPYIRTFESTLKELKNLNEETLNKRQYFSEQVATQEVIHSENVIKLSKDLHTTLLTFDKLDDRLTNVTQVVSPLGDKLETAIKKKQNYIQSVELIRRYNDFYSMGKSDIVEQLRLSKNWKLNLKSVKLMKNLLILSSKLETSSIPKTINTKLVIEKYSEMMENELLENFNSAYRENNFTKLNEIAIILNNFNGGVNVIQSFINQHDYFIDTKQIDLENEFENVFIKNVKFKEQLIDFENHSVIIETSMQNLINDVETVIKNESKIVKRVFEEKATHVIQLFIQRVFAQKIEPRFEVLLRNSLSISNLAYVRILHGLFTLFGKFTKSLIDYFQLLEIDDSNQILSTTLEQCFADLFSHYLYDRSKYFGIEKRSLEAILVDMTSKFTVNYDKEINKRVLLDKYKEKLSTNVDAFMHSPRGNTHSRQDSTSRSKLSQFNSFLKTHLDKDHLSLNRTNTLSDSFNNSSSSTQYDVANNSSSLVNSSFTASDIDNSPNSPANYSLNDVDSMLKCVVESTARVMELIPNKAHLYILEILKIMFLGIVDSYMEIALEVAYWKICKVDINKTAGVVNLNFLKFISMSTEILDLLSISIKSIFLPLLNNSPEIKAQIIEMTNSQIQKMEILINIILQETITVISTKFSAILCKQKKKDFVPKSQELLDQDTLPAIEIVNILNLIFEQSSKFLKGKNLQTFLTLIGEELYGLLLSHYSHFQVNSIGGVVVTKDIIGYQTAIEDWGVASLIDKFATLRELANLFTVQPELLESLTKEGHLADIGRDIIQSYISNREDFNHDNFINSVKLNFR

Measured: binding result

B1: Exo70 (natural protein)
chain: MPAEIDIDEADVLVLSQELQKTSKLTFEINKSLKKIAATSNQSSQLFTPILARNNVLTTLQRNIESTLNSVASVKDLANEASKYEIILQKGINQVGLKQYTQVVHKLDDMLEDIQSGQANREENSEFHGILTHLEQLIKRSEAQLRVYFISILNSIKPFDPQINITKKMPFPYYEDQQLGALSWILDYFHGNSEGSIIQDILVGERSKLILKCMAFLEPFAKEISTAKNAPYEKGSSGMNSYTEALLGFIANEKSLVDDLYSQYTESKPHVLSQILSPLISAYAKLFGANLKIVRSNLENFGFFSFELVESINDVKKSLRGKELQNYNLLQDCTQEVRQVTQSLFRDAIDRIIKKANSISTIPSNNGVTEATVDTMSRLRKFSEYKNGCLGAMDNITRENWLPSNYKEKEYTLQNEALNWEDHNVLLSCFISDCIDTLAVNLERKAQIALMPNQEPDVANPNSSKNKHKQRIGFFILMNLTLVEQIVEKSELNLMLAGEGHSRLERLKKRYISYMVSDWRDLTANLMDSVFIDSSGKKSKDKEQIKEKFRKFNEGFEDLVSKTKQYKLSDPSLKVTLKSEIISLVMPMYERFYSRYKDSFKNPRKHIKYTPDELTTVLNQLVR
binds: all assays above
